# In PubChem BioAssay AID504333 (National Center for Advancing Translational Sciences (NCATS), 2011):
# The campaign covered roughly 360,000 compounds. About 16,000 (4.4%) were called active. This list was built around the results that the source calls inconclusive (neither active nor inactive); the mix of calls is not that of the screen. The call rests on the fitted dose curve; in most records, active means well fitted inhibition curve with a large enough effect; inconclusive means small, poorly fitted or top-dose-only effect; inactive means no such curve, though single readings can be large or run the other way. Potencies of inconclusive entries are doubtful fits and often do not repeat.
# Biological target: Bromodomain adjacent to zinc finger domain protein 2B (Homo sapiens) (UniProt Q9UIF8)
# Sequence of UniProt Q9UIF8 (Q9UIF8 whole entry, looked up, the tested form may be a part): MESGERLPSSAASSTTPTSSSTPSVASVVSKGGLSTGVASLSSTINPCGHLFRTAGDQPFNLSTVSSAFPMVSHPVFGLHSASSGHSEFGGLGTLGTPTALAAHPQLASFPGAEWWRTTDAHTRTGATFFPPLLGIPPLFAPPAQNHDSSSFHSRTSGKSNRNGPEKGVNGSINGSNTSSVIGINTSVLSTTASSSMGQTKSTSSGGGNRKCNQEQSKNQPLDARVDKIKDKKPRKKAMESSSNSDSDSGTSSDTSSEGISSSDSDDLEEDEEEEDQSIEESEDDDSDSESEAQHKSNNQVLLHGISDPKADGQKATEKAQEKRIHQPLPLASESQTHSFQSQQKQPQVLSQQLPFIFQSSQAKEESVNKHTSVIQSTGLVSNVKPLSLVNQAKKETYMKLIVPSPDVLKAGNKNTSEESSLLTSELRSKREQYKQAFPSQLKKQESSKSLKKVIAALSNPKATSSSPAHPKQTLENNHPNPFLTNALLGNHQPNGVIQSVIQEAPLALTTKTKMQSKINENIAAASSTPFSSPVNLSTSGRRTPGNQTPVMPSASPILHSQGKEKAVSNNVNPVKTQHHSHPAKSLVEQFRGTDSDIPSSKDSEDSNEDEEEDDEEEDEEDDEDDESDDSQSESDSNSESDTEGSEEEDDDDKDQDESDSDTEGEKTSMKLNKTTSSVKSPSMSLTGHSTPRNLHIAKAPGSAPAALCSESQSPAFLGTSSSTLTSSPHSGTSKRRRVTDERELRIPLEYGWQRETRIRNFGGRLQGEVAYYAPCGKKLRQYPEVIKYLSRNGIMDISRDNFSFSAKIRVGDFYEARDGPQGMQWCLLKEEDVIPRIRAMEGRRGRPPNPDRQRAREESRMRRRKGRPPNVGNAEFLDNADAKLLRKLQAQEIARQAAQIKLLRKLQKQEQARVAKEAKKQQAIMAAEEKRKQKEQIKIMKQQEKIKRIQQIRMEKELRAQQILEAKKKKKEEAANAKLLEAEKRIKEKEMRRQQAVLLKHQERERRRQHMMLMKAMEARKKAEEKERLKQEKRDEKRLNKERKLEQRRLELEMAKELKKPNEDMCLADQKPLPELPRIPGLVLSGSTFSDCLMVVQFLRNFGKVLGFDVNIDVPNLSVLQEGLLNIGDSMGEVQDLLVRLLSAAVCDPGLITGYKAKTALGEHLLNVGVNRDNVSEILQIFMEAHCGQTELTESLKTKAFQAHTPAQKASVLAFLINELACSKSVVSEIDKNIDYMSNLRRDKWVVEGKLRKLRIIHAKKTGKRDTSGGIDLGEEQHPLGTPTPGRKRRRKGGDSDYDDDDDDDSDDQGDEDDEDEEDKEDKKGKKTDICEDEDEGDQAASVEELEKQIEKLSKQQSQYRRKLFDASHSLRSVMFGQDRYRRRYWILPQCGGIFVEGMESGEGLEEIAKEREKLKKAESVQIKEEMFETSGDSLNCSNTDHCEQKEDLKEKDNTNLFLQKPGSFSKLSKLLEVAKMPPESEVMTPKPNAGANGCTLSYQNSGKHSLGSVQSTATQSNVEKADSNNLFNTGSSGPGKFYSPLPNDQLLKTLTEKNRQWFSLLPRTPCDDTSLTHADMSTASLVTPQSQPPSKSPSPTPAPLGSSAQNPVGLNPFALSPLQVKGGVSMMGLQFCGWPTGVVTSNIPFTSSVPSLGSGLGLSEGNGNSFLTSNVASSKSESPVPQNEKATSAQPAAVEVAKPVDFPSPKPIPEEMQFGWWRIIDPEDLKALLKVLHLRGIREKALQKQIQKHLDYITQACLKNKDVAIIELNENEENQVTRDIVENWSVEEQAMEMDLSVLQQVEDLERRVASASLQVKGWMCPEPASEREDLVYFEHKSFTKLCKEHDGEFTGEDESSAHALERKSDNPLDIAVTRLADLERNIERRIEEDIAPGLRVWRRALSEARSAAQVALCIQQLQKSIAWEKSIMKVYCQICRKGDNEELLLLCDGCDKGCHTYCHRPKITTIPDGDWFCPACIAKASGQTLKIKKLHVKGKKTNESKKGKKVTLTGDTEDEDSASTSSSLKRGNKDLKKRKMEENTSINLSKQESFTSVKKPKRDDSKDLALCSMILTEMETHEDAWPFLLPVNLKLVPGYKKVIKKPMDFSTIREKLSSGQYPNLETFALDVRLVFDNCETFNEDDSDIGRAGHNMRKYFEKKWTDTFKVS
# Assay: qHTS Assay for Inhibitors of BAZ2B; further: nearly all actives have a fitted effect of over 60% in size
# Conditions: AlphaScreen BAZ2B-H3K14Ac peptide displacement; activity change, negative = inhibition: at 114 µM (top of the series) unless noted
# In short: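 AlphaScreen displacement of biotin-H3(5-23)K14Ac peptide (50 nM final) from BAZ2B (50 nM final) in PBS pH 7.4, 0.01% Tween-20; complex preformed 30 min RT, then compounds (top 110 uM) 30 min RT, beads 20 min dark.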
# On the % scale 0 is the no-effect control and ±100 the full control effect; potency means the concentration at half of the fitted maximal effect; tags describe the fitted curve by direction and shape.
SMILES,"activity change, negative = inhibition",Potency
COc1cccc(CN2CCN(CCc3ccccc3)C(CCO)C2)c1OC (configuration not stated),inactive: 3.31%,–
O=C(c1cc([N+](=O)[O-])ccc1N1CCOCC1)N1CCN(c2ccccc2)CC1,–,"inconclusive: 79.4 µM [inhibitor, single point]"
COc1ccc(C(=O)Nc2nnc(C(F)(F)F)s2)cc1,inactive: 0.449%,–
COc1ccc(/C=N/NC(=O)c2c(Br)cnn2C)c2ccccc12,inactive: -37.6%,–
CCCCn1c(-c2ccccc2)cnc1SCC(=O)NCCc1ccc(OC)c(OC)c1,–,active: 44.7 µM
O=C(NCCc1ccccc1)C1CCC(CNS(=O)(=O)c2ccc(F)cc2)CC1 (configuration not stated),inactive: 3.38%,–
O=[N+]([O-])c1ccc(N/N=C/c2cccc(O)c2O)cc1,–,"inconclusive: 79.4 µM [inhibitor, single point]"
CCOC(=O)c1cnc2c(Cl)cc(Cl)cc2c1NCCCN1CCOCC1,–,"inconclusive: 89.1 µM [inhibitor, single point]"
COc1ccc(/C=C/C(=O)Nc2cccc(S(=O)(=O)NC3=NCCCCC3)c2)cc1OC,inactive: 8.71%,–
O=C(NCCS(=O)(=O)N1CCN(c2ccccc2F)CC1)c1ccc(F)c(F)c1,inactive: 2.94%,–
Cc1ccccc1C(=O)Nc1sc2c(c1C(=O)O)CCC2,–,"inconclusive: 79.4 µM [inhibitor, single point]"
CCN(CC)C(=O)CSc1nnc(-c2ccccc2)n1N,inactive: 10.5%,–
O=C(Nc1cccc(F)c1)C1CCN(c2nc3ccccc3[nH]2)CC1,inactive: -1.39%,–
COC(=O)c1ccc(OCC2c3cc(OC)c(OC)cc3CCN2C(=O)c2ccco2)cc1 (configuration not stated),–,"inconclusive: 44.7 µM [inhibitor, partial curve]"
COc1ccc(Cc2nc(=S)[nH][nH]2)cc1Br,–,"inconclusive: 79.4 µM [inhibitor, partial curve, poor fit]"
Cc1oc2cc([N+](=O)[O-])c(O)c([N+](=O)[O-])c2c1C(=O)c1ccc(Br)cc1,–,active: 35.5 µM
CCCCN(C)CCCNC(=O)c1cc(=O)[nH]c2ccc(S(=O)(=O)N3CCCCC3C)cc12 (configuration not stated),inactive: -28.8%,–
CC1CCCN(c2nc3c(c(=O)n(C)c(=O)n3C)n2CCSc2nc3ccccc3s2)C1 (configuration not stated),–,"inconclusive: 44.7 µM [inhibitor, partial curve]"
CCOC(=O)C1(CC)CC(CSc2nc3ccccc3[nH]2)OC1=O (configuration not stated),–,"inconclusive: 89.1 µM [inhibitor, single point]"
CCOC(=O)C1(CCOc2ccccc2)CCN(Cc2ccncc2)CC1,–,"inconclusive: 89.1 µM [inhibitor, single point]"
Cc1ccc(C2/C(=C(/O)c3cnn(-c4ccccc4)c3C)C(=O)C(=O)N2CCN2CCOCC2)o1 (configuration not stated),–,active: 79.4 µM
CCCCNC(=O)/C(=C/c1ccccc1)NC(C)=O,inactive: 12.5%,–
COc1ccccc1C(=O)NC(CCSC)C(=O)OC(C)C(=O)NC1CC1 (configuration not stated),inactive: 12.2%,–
O=C(COc1ccc(Br)cc1)Nc1ccc(Cc2ccncc2)cc1,–,"inconclusive: 39.8 µM [inhibitor, partial curve]"

SMILES,"activity change, negative = inhibition",Potency
COc1ccccc1N1CCN(C(=O)CSc2nnc(NC(=O)C3CC3)s2)CC1,inactive: 6.18%,–
CCOC(=O)C1=C(O)C(=O)N(c2ccc(S(N)(=O)=O)cc2)C1c1ccc(Cl)cc1 (configuration not stated),–,"inconclusive: 89.1 µM [inhibitor, single point]"
C#CCOCCOCCOCCNc1nc(N2CCN(C(=O)[C@H]([C@@H](C)CC)n3cc([C@@H](N)Cc4ccc(O)cc4)nn3)CC2)nc(N2CCN(C(=O)[C@H](Cc3cc4ccccc4[nH]3)n3cc([C@@H](N)CC(C)C)nn3)CC2)n1,–,active: 56.2 µM
Cc1ccc(N2CCN(c3ccc(C)cc3)C2c2ccccn2)cc1,–,active: 50.1 µM
O=C(c1c[nH]c2ccccc12)C(O)C(c1ccccc1)N1CCOCC1 (configuration not stated),inactive: 4.81%,–
Cc1nn(-c2ccc(N3CCCCC3)nn2)c(C)c1CCC(=O)NCc1ccc(Cl)cc1,–,"inconclusive: 50.1 µM [inhibitor, partial curve, poor fit]"
Cc1cc(NC(=O)CSc2nc(Cc3ccc(O)cc3)c(C)[nH]2)no1,–,"inconclusive: 89.1 µM [inhibitor, single point]"
C/C=C/c1ccc(O)c(OC)c1,–,"inconclusive: 89.1 µM [inhibitor, single point]"
COc1ccc(-c2csc(NC(=O)c3c(C)noc3C)n2)cc1,inactive: -2.6%,–
CCc1ccc(NS(=O)(=O)c2ccc3[nH]cc(C(=O)N(C)Cc4ccco4)c(=O)c3c2)cc1,–,"inconclusive: 89.1 µM [inhibitor, single point]"
Cc1cc(/C=N/n2cnnc2)c(C)n1-c1ccc(Cl)cc1Cl,–,"inconclusive: 44.7 µM [inhibitor, partial curve]"
Cc1cc(NC(=O)CSc2nnc(CNC(=O)c3ccc(F)cc3)o2)no1,inactive: 1.67%,–
CCc1ccc(-c2nc(CN3CCC(C(=O)NCc4ccccc4OC)CC3)c(C)o2)cc1,–,"inconclusive: 50.1 µM [inhibitor, partial curve]"
O=C(O)Cc1sc(NCc2ccco2)nc1-c1ccccc1,–,"inconclusive: 79.4 µM [inhibitor, single point]"
CC(NC(=O)NC(N)=O)(C(F)(F)F)C(F)(F)F,inactive: -3.53%,–
COc1ccc(C2CC(=O)N(Cc3ccccc3)c3c2c(C)nn3-c2nc(C)cc(C)n2)c(OC)c1 (configuration not stated),inactive: -20.9%,–
Cc1cccc(NS(=O)(=O)c2ccc(NC(=O)N3CCCC3)cc2)c1,inactive: 5.91%,–
CC(C)C1Cc2c(sc3ncnc(NN)c23)CO1 (configuration not stated),–,active: 28.2 µM
Cc1ccc(NCc2nnc(SCC(=O)c3ccccc3)o2)c(C)c1,–,"inconclusive: 79.4 µM [inhibitor, single point]"
Cc1ccc(C(=O)OCC(=O)Nc2sc3c(c2C#N)CCC3)cc1,–,"inconclusive: 89.1 µM [inhibitor, single point]"
COc1ccc(/C(O)=C2\C(=O)C(=O)N(CCN(C)C)C2c2cccc(OC)c2OC)cc1Cl (configuration not stated),–,"inconclusive: 89.1 µM [inhibitor, single point]"
O=C(Nc1ccc2ccccc2c1)c1ccc(Br)o1,–,"inconclusive: 44.7 µM [inhibitor, partial curve]"
Cc1ccc(C(=O)NCCCNCCCN(C)C)cn1,–,"inconclusive: 89.1 µM [inhibitor, single point]"
CC1(c2ccccc2)CC(C)(C)N2C(=O)C(=O)c3cccc1c32 (configuration not stated),–,active: 28.2 µM

SMILES,"activity change, negative = inhibition",Potency
O=C(NCCc1ccccc1)c1ccc(Cl)c(S(=O)(=O)N2CCCC2)c1,–,"inconclusive: 79.4 µM [inhibitor, single point]"
CCOC(=O)c1c(NC(=O)c2ccc(OC)c(OC)c2)sc2c1CCCCC2,inactive: 1.77%,–
Cc1cc(C)cc(NC(=O)c2nccnc2C(=O)O)c1,–,"inconclusive: 89.1 µM [inhibitor, single point]"
Cc1ccc2nc(-c3ccc(NC(=O)CN4CCN(C(=O)c5ccco5)CC4)cc3)sc2c1,–,"inconclusive: 79.4 µM [inhibitor, single point]"
Cn1c(=O)c2cn(-c3cccc4ccccc34)cc2n(C)c1=O,–,"inconclusive: 89.1 µM [inhibitor, single point]"
CCOc1ccc(C2C=C(c3ccc(C)cc3)Nc3nnnn32)cc1 (configuration not stated),–,"inconclusive: 79.4 µM [inhibitor, single point]"
COc1ccc(C(=O)Nc2ccccc2N2CCN(C(=O)c3ccccc3)CC2)cc1Br,inactive: -9.08%,–
CC(Oc1ccc(C(=O)c2ccccc2)cc1)C(=O)Nc1ccc(S(N)(=O)=O)cc1 (configuration not stated),–,"inconclusive: 100 µM [inhibitor, single point]"
COc1ccc(OC)c(Nc2nc(NCCCN(C)C)nc(N)c2[N+](=O)[O-])c1,–,active: 31.6 µM
CCn1cc(S(=O)(=O)c2cccc(C)c2)c(=O)c2cc(F)c(N3CCN(c4ccccc4)CC3)cc21,inactive: -3.03%,–
COc1cc(/C=N/NC(=S)NC2CC3CCC2C3)ccc1O (configuration not stated),–,"inconclusive: 39.8 µM [inhibitor, partial curve]"
COC(=O)Cc1cc(=O)n2[nH]c(C)nc2n1,inactive: 9.07%,–
COc1ccc(-c2ccc(CCC(=O)O)n2-c2ccc(Cl)cc2C)cc1,–,"inconclusive: 50.1 µM [inhibitor, partial curve]"
CCN(C(=O)CSc1nc2ccccc2n1CC(=O)Nc1ccc(F)cc1F)c1ccccc1,inactive: -34.2%,–
CCN(C(=O)CSc1nc2n[nH]c(C)c2c(=N)n1-c1cccc(OC)c1)c1cccc(C)c1,–,"inconclusive: 22.4 µM [inhibitor, full curve]"
NC(=S)N/N=C/c1ccccc1OC(=O)/C=C/c1ccccc1,–,"inconclusive: 39.8 µM [inhibitor, partial curve]"
COCCNC(=S)N(CCc1c(C)[nH]c2ccc(OC)cc12)Cc1ccco1,–,"inconclusive: 50.1 µM [inhibitor, partial curve]"
Cc1cc(/C=N/n2cnnc2)c(C)n1-c1cc(Cl)ccc1Cl,–,"inconclusive: 79.4 µM [inhibitor, single point]"
O=C(C1CCC(CNS(=O)(=O)c2cccc3nsnc23)CC1)N1CC=C(c2ccccc2)CC1 (configuration not stated),inactive: 17.2%,–
COc1ccc2c(c1)c1nnc(SCC(=O)Nc3ccccc3F)nc1n2C,–,"inconclusive: 89.1 µM [inhibitor, single point]"
O=C(O)/C=C\C(=O)Nc1ccc(N2CCN(c3ccc(Cl)c(Cl)c3)CC2)cc1,–,active: 31.6 µM
CCCCCCNc1nc(-c2ccc(OC)cc2)c(CCC(=O)O)s1,–,"inconclusive: 89.1 µM [inhibitor, single point]"
COc1ccc(OC)c(NC(=O)c2cc(=O)c3c(C)cc(C)cc3o2)c1,inactive: -22.3%,–
O=C1c2ccccc2C2=Nc3ccccc3SC(c3ccccc3F)C12 (configuration not stated),–,active: 8.91 µM
